Measured values published in PubChem BioAssay AID248 (DTP/NCI, 2004).
Toxic doses and inconclusive results are not listed.

System: L1210 leukemia ip in BDF1 mice, survival T/C
Experiment: NCI In Vivo Anticancer Drug Screen. Data for tumor model L1210 Leukemia (intraperitoneal) in B6D2F1 (BDF1) mice
Conditions: endpoint: mean survival time, higher = longer survival
Protocol: The antitumor activity of compounds was measured in mice bearing transplantable tumors. Survival or tumor size were measured and the results are expressed as the measurement made in the treated group (T) divided by the measurement made in the vehicle treated control group (C). The tumor model used in this assay is L1210 Leukemia (intraperitoneal) in B6D2F1 (BDF1) mice

SMILES: COc1cc2c(c(OC)c1OC)-c1ccc(OC)c(=O)cc1[C@@H](N)CC2
- T/C (dose: 0.25 mg/kg/injection, schedule: Q12HX024 (ip), vehicle: water): 104 % of control
- T/C (dose: 0.5 mg/kg/injection, schedule: Q01DX001 (ip), vehicle: saline): 100 % of control
- T/C (dose: 0.5 mg/kg/injection, schedule: Q12HX016 (ip), vehicle: water): 119 % of control
- T/C (dose: 0.5 mg/kg/injection, schedule: Q12HX024 (ip), vehicle: water): 117 % of control
- T/C (dose: 1.0 mg/kg/injection, schedule: Q01DX001 (ip), vehicle: saline): 102 % of control
- T/C (dose: 1.0 mg/kg/injection, schedule: Q01DX009 (ip), vehicle: water): 117 % of control
- T/C (dose: 1.0 mg/kg/injection, schedule: Q12HX008 (ip), vehicle: water): 110 % of control
- T/C (dose: 1.0 mg/kg/injection, schedule: Q12HX016 (ip), vehicle: water): 100 % of control
- T/C (dose: 1.0 mg/kg/injection, schedule: Q12HX024 (ip), vehicle: water): 95 % of control
- T/C (dose: 1.5 mg/kg/injection, schedule: Q01DX015 (ip), vehicle: clinical formulation): 109 % of control
- T/C (dose: 1.5 mg/kg/injection, schedule: Q01DX015 (ip), vehicle: saline): 124 % of control
- T/C (dose: 2.0 mg/kg/injection, schedule: Q01DX001 (ip), vehicle: saline): 102 % of control
- T/C (dose: 2.0 mg/kg/injection, schedule: Q01DX009 (ip), vehicle: water): 110 % of control
- T/C (dose: 2.0 mg/kg/injection, schedule: Q04DX003 (ip), vehicle: water): 111 % of control
- T/C (dose: 2.0 mg/kg/injection, schedule: Q12HX016 (ip), vehicle: water): 91 % of control
- T/C (dose: 4.0 mg/kg/injection, schedule: Q01DX001 (ip), vehicle: saline): 98 % of control
- T/C (dose: 4.0 mg/kg/injection, schedule: Q01DX009 (ip), vehicle: water): 102 % of control
- T/C (dose: 4.0 mg/kg/injection, schedule: Q04DX002 (ip), vehicle: water): 102 % of control
- T/C (dose: 4.0 mg/kg/injection, schedule: Q04DX003 (ip), vehicle: water): 104 % of control
- T/C (dose: 8.0 mg/kg/injection, schedule: Q01DX001 (ip), vehicle: saline): 102 % of control
- T/C (dose: 8.0 mg/kg/injection, schedule: Q01DX001 (ip), vehicle: water): 111 % of control
- T/C (dose: 8.0 mg/kg/injection, schedule: Q04DX002 (ip), vehicle: water): 100 % of control
- T/C (dose: 8.0 mg/kg/injection, schedule: Q04DX003 (ip), vehicle: water): 113 % of control
- T/C (dose: 9.0 mg/kg/injection, schedule: Q01DX015 (ip), vehicle: clinical formulation): 114 % of control
- T/C (dose: 9.0 mg/kg/injection, schedule: Q01DX015 (ip), vehicle: saline): 168 % of control
- T/C (dose: 16.0 mg/kg/injection, schedule: Q01DX001 (ip), vehicle: water): 111 % of control
- T/C (dose: 16.0 mg/kg/injection, schedule: Q04DX002 (ip), vehicle: water): 100 % of control
- T/C (dose: 32.0 mg/kg/injection, schedule: Q01DX001 (ip), vehicle: water): 113 % of control
- T/C (dose: 32.0 mg/kg/injection, schedule: Q04DX002 (ip), vehicle: water): 105 % of control
- T/C (dose: 128.0 mg/kg/injection, schedule: Q01DX001 (ip), vehicle: water): 114 % of control
